In all, about 220,000 compounds went through this assay and about 16,000 (7.3%) were called active. This list was built around the results that the source calls inconclusive (neither active nor inactive); the mix of calls is not that of the screen. Calls follow the shape of the dose curve; as a rule, active = well fitted inhibition curve with a large enough effect (not every such curve was filed as active); inconclusive = small, poorly fitted or top-dose-only effect, or another doubt; inactive = no such curve, though single readings can be large or run the other way. Potencies of inconclusive entries are left out as doubtful fits.
molecular target: Aldehyde dehydrogenase 1A1 (Homo sapiens) (UniProt P00352); test: qHTS Assay for Inhibitors of Aldehyde Dehydrogenase 1 (ALDH1A1); conditions: Purified ALDH1A1, NADH fluorescence, propionaldehyde substrate; series mostly up to 75.3 µM; activity, negative = inhibition: at the top concentration;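 as to activity, negative = inhibition: plate controls were no enzyme wells and a reference inhibitor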
Potency is read from the fitted curve at half-maximal effect; tags tell the direction and shape of the fitted curve.

UniProt P00352, sequence (P00352 whole entry, looked up): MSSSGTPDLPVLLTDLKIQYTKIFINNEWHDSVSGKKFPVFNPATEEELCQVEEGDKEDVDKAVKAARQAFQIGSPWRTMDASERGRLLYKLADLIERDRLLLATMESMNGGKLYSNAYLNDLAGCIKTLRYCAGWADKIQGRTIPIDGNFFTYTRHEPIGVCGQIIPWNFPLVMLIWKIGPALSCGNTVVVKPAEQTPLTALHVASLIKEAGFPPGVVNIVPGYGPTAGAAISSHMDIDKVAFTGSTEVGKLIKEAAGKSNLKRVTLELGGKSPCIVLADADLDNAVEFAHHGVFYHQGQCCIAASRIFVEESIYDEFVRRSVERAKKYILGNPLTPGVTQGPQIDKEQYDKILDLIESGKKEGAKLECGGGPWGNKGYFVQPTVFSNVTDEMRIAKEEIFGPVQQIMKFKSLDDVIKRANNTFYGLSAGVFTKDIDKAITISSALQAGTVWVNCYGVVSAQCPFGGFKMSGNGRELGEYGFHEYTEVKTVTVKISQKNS

SMILES | Potency | activity, negative = inhibition
CN(C)c1ncc2nc(-c3ccc(F)cc3)c(=O)n(Cc3cccs3)c2n1 | inconclusive [inhibitor, partial curve] | –
CCOC(=O)Nc1ccc2c(C)cc(=O)oc2c1 | inconclusive [inhibitor, partial curve] | –
CCCCCn1c(-c2ccco2)nc2nc3ccccc3nc21 | inconclusive [inhibitor, partial curve] | –
Cn1c(=O)n(Cc2ccc(Cl)cc2)c(=O)c2c1nc1n2CCN1Cc1ccco1 | inconclusive [inhibitor, single point] | –
C/C(=N\NC(=O)Cc1c[nH]c2ccccc12)c1ccc2ccccc2c1 | inconclusive [inhibitor, single point] | –
CCN1C(=O)c2cccc3c(S(=O)(=O)Nc4ccccc4OC)ccc1c23 | active: 4.47 µM | –
Cc1cc(C)c2c(N)c(C(=O)N3CCCCCC3)sc2n1 | inconclusive [inhibitor, single point] | –
COc1cc2c(cc1NC(=O)Nc1ccccc1)oc1ccccc12 | inconclusive [inhibitor, single point] | –
CCO[C@H]1OC(C(=O)N2CCCCCCC2)=C[C@@H](C)[C@@H]1CCCO | – | inactive: -2.73%
CCOC(=O)c1cc(NC(=O)c2ccc(OC)cc2)c(=O)oc1-c1ccccc1 | inconclusive [inhibitor, partial curve] | –
CCc1cc(C(=O)NNC(=S)NC(C)c2ccccc2)cs1 (stereo unspecified) | – | inactive: 6.99%
CS(=O)(=O)N1CCC2(CCCN(c3cccc(-c4ccccc4)c3)C2)CC1 | – | inactive: -8.38%
CCN1CCN(C(c2ccc(OC)cc2)C(O)C(=O)c2c[nH]c3ccccc23)CC1 (stereo unspecified) | – | inactive: -4.04%
Cc1ccc(NC(=O)CN(C)Cc2ccc(F)cc2)c([N+](=O)[O-])c1 | inconclusive [inhibitor, single point] | –
c1ccc(-c2nnc(CN3CCC4(CC3)OCCO4)o2)cc1 | – | inactive: -8.2%
CCCCN1CC2=C(C1=O)C(c1ccc(O)cc1)NC(=O)N2C (stereo unspecified) | – | inactive: 15.1%
Cc1ccc(S(=O)(=O)CCSc2n[nH]c(=O)n2-c2ccccc2)cc1 | active: 20 µM | –
O=C(Nc1nccs1)c1sc2ccccc2c1Cl | – | inactive: -1.69%
CC1CC(C)(C)NC(=S)N1CCCC(=O)Nc1ccc2c(c1)OCCO2 (stereo unspecified) | inconclusive [inhibitor, partial curve, poor fit] | –
COc1ccc(-[n+]2c(C)cc(/C=C3\Sc4ccccc4N3C)cc2C)cc1 | inconclusive [inhibitor, partial curve] | –
CCOC(=O)c1[nH]c(C)c(C(=O)OCC(=O)Nc2sc3c(c2C#N)CCCCC3)c1C | – | inactive: 0.144%
CCN(CC)c1ccc(/C=N/NC(=O)c2ccc([N+](=O)[O-])cc2)cc1 | active: 28.2 µM | –
O=c1c2ccc(Cl)cc2nc(-c2cccc(C(F)(F)F)c2)n1O | – | inactive: 10.7%
CCOC(=O)c1sc(NC(=O)CSc2nc3c(cc2C#N)CCCCCC3)c(C#N)c1C | inconclusive [inhibitor, single point] | –

SMILES | Potency | activity, negative = inhibition
CC1=C(C(=O)Nc2cccnc2)C(c2ccc3c(c2)OCO3)C2=C(CCCC2=O)N1 (stereo unspecified) | inconclusive [inhibitor, partial curve] | –
O=C(N/C(=C/c1ccc(Br)cc1)c1nc2ccccc2[nH]1)c1ccco1 | inconclusive [inhibitor, single point] | –
CCc1nc(SCc2cccnc2)c(C#N)cc1C | inconclusive [inhibitor, single point] | –
Cc1ccc(-c2csc3nc(C)n(-n4c(C)ccc4C)c(=O)c23)o1 | inconclusive [inhibitor, single point] | –
COCCN=c1scc(-c2cc(OC)c(OC)c(OC)c2)n1/N=C/c1c(C)[nH]c2ccccc12 | inconclusive [inhibitor, single point] | –
CCN(CC)S(=O)(=O)c1ccc(OC)c(NC(=O)c2ccc([N+](=O)[O-])cc2)c1 | inconclusive [inhibitor, single point] | –
O=C(CNC(=O)C12CC3CC(CC(C3)C1)C2)NC1=NCCS1 | inconclusive [inhibitor, single point] | –
CCN(CC(=O)NCc1ccc(F)cc1)Cc1cc(=O)n2ccsc2n1 | inconclusive [inhibitor, single point] | –
O=C(NCc1ccco1)C1CC(c2ccc(Cl)c(Cl)c2)=NO1 (stereo unspecified) | – | inactive: 0.0699%
CCOC(=O)C1CCN(C(=O)c2cn(CCOC)c(=O)c3c2c2ccccc2n3C)CC1 | inconclusive [inhibitor, partial curve] | –
O=c1oc2ccccc2c(O)c1C=NCc1ccccn1 | active: 28.2 µM | –
CCOC(=O)c1c(NC(=O)CSc2nc3ccccc3c(=O)n2-c2ccc(F)cc2)sc(C(C)=O)c1C | – | inactive: 19.6%
COc1cccc(N2CCN(Cc3nnnn3C3CCCCC3)CC2)c1 | – | inactive: -14.7%
COC(=O)c1ccccc1NC(=O)COC(=O)c1ccco1 | inconclusive [inhibitor, partial curve] | –
CC(C)CNC(=S)NC1CC2CCCC(C1)N2Cc1cccs1 (stereo unspecified) | inconclusive [inhibitor, single point] | –
CC(C)NC(=O)c1ccc2c(c1)S(=O)(=O)c1ccccc1C2=O | inconclusive [inhibitor, partial curve] | –
COc1cccc(CNc2ncnc3cc(OC)c(OC)cc23)c1 | – | inactive: -4.97%
CC(C)Cc1ccc(/C=C/C(=O)N2CCCCC2)cc1 | inconclusive [inhibitor, single point] | –
COCCn1c(=O)c(-c2cc(F)cc(F)c2)nc2cnc(N3CCNCC3)nc21 | inconclusive [inhibitor, partial curve] | –
Nc1ccc(-c2nc3c(Cl)cc(N)cc3[nH]2)cc1 | inconclusive [inhibitor, partial curve] | –
Cc1cc(C)c(C(=O)CSc2nnc(C)s2)c(C)c1 | inconclusive [inhibitor, single point] | –
COc1cc(NC(=O)CSc2nc3ccccc3c(=O)n2C)ccc1NC(=O)c1ccco1 | inconclusive [inhibitor, single point] | –
CCOC(=O)c1c(CNc2ccncc2)n(C)c2cc(Br)c(O)cc12 | – | inactive: 0.583%
O=C1CC(c2ccccc2)=Nc2ccccc2N1 | inconclusive [inhibitor, single point] | –

SMILES | Potency | activity, negative = inhibition
Cc1cc(N=Cc2c(O)n(-c3ccc(C)c(C)c3)c(=O)c3ccccc23)no1 | – | inactive: 12.2%
COc1ccc(/C=C/C(=O)Oc2ccc(C)c(C)c2)cc1OC | inconclusive [inhibitor, single point] | –
Cc1sc(NC(=O)CSc2nnnn2C2CCCCC2)c(C#N)c1C | inconclusive [inhibitor, partial curve] | –
O=c1c(Cc2ccc(F)cc2)c(O)ccn1Cc1ccc(Cl)cc1Cl | inconclusive [inhibitor, single point] | –
O=C(CCN1c2ccccc2Sc2ccccc21)Oc1ccccc1 | inconclusive [inhibitor, single point] | –
COC1(OC)C(=N/O)/C(=N\O)CCC1O (stereo unspecified) | – | inactive: 1.14%
Cn1c(=O)[nH]c(=O)c2c1nc(SCC(=O)O)n2CCc1ccccc1 | active: 6.31 µM | –
COCC(C)NC(=O)Cc1ccc(Cl)cc1 (stereo unspecified) | – | inactive: -0.166%
C=CCNC(=S)N/N=C/c1cccc([N+](=O)[O-])c1 | inconclusive [inhibitor, single point] | –
C=CCN(Cc1cccc(OC)c1OC)S(=O)(=O)N(C)C | active: 25.1 µM | –
COC(=O)CSc1nc(C)c(C)c(C)c1C(N)=O | – | inactive: 3.45%
O=c1[nH]c2cc3c(cc2cc1C(c1nnnn1C1CCCCC1)N1CCSCC1)OCCO3 (stereo unspecified) | inconclusive [inhibitor, partial curve] | –
COc1ccc(O[C@H]2C=C[C@@H](c3ccccc3)O[C@@H]2CO/N=C(\C)CCN2CCCc3nc(C)c(C)cc32)cc1 | – | inactive: 6.19% [at 13.5 µM]
OCCNc1nc(-c2ccccc2)nc2ccccc12 | – | inactive: 0.513%
C=Cc1c(C)/c2[n-]/c1=C\c1[n-]c(c(CC)c1C)/C=c1\[n-]c3c(c1C)C(=O)C(C(=O)[O-])C=3c1[n-]c(c(C)c1CCC(=O)[O-])\C=2.[Cu].[Na+].[Na+] (stereo unspecified) | inconclusive [inhibitor, partial curve] | –
C=CCn1c(SCc2nc3sc4c(c3c(=O)[nH]2)CCCC4)nc2ccccc2c1=O | inconclusive [inhibitor, partial curve] | –
CCOC(=O)C1CCCN(c2cc(C)nc3cc(-c4ccc(Cl)cc4)nn23)C1 (stereo unspecified) | inconclusive [inhibitor, single point] | –
Cc1ccc(C)n1-c1ccc(C(=O)Nc2ccccc2F)cc1 | inconclusive [inhibitor, single point] | –
c1cc(-c2cccs2)nc(-c2cccs2)c1 | inconclusive [inhibitor, single point] | –
CCOC(=O)c1nn(-c2ccc(OCC)cc2)c2nc(CC(C)C)c(C#N)c(=O)n12 | inconclusive [inhibitor, partial curve] | –
c1ccc(Cn2nnnc2C(c2ccccc2)N2CCN(c3nc4ccccc4s3)CC2)cc1 (stereo unspecified) | active: 11.2 µM | –
COc1ccc2c(c1)C(=O)c1ccccc1CO2 | active: 3.98 µM | –
COc1ccc(C(C(O)C(=O)c2c[nH]c3ccccc23)N2CCN(c3ccc(OC)cc3)CC2)cc1 (stereo unspecified) | inconclusive [inhibitor, single point] | –
